Data as given in patent US20040157314A1, “Inhibitors of Staphylococcus aureus primary sigma factor and uses thereof” (priority 2003, published 2004).

Columns and labels:
STAAU_R12 [1] = molecular target: T1, STAAU_R12 (Staphylococcus aureus, UniProt P0A0J0); assay: TR-FRET assay of STAAU_R12 / G1ORF67 interaction; type: binding; parameters: made in house; host or cells: E. coli BL21; details: GB-G1ORF67 and HK-STAAU_R12, FIG. 5A
Excerpt: TR-FRET technology was favorably used for monitoring the interaction of S. aureus phage G1ORF67 with its cognate target STAAU_R12 from S. aureus. This method is based on the energy transfer from a long-lived fluorophore (the energy donor) to anotherfluorophore (the energy acceptor) upon excitation of the donor (Mathis G., Clinical Chemistry (1995) 41:1391-1397). For this assay, Europium cryptate (Eu)-labeled anti-Histidine antibodies were used as energy donor and allophycocyanin (APC)-labeled anti-GST antibodies as energy acceptor. When the fluorescence donor and acceptor molecules are brought into close proximity as a result of a biomolecular interaction, flash excitation of Eu at 340 nm results in transfer of a portion of excitation energy non-radiatively to the APC acceptor which emits light at 665 nm. Under those conditions, the emission of light from APC adopts the time-resolved nature of the donor. Under conditions of no interaction and therefore of no proximity between the proteins under investigation, only background levels of emission from APC at 665 nm are detected.
Thus under the TR-FRET conditions, the interaction of HK-STAAU_R2 with GB-G1ORF67 induces a transfer of energy from Eu to APC, detected optimally at 665 nm. […]

STAAU_R12 [2] = molecular target: T1, STAAU_R12; assay: Yeast two-hybrid analysis; type: cell-based; parameters: expressed in transfected cells; host or cells: yeast strain AH109 (Clontech)
[3] = molecular target: STAAU_R12 with E. coli core polymerase and λPR promoter DNA probe (Staphylococcus aureus, UniProt P0A0J0); assay: Electrophoretic mobility shift assay, STAAU_R12-dependent DNA binding; type: biochemical; details: pre-incubation with STAAU_R12, FIG. 9
Sequence of STAAU_R12 with E. coli core polymerase and λPR promoter DNA probe (P0A0J0 whole entry): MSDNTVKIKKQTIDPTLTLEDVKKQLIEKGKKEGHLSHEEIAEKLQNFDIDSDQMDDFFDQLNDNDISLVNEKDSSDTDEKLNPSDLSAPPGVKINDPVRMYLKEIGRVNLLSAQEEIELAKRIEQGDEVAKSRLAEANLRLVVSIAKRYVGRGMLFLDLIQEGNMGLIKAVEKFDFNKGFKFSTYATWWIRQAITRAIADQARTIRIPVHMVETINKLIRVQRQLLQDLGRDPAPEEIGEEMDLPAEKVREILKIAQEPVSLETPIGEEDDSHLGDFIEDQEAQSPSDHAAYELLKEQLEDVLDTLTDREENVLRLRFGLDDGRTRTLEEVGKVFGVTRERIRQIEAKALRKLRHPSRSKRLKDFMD

[4] = test system: RNA synthesis in S. aureus strain RN4220; assay: Macromolecular synthesis in S. aureus expressing the ORF (3H-uridine uptake); type: cell-based, Staphylococcus aureus; details: induced with 5 μM sodium arsenite, FIG. 11
Procedure: To complement the inhibitory effect of G1ORF67 observed in vitro on the activity of STAAU_R12, we investigated the effect of G1ORF67 on the synthesis of macromolecules in S. aureus. To this end, the effect G1ORF67 on STMU_R12 was evaluated in the S. aureus strain RN4220 expressing G1ORF67 under the control of the arsenite promoter, by measuring the uridine uptake to monitor global transcription. As negative controls, 77ORF104 and other phage ORFs were used in parallel. Briefly, exponentially growing cells harboring G1ORF67 or the negative control ORFs were induced or not with 5 μM of sodium arsenite for different periods of time and then, 100 μl of the cells were withdrawn and subjected to a pulse labeling with 0.1 μCi/ml of ^3H-uridine (Amersham-Pharmacia) for 15 min at 37° C. Cells were then treated with 10% TCA for 30 min at 4° C. and unincorporated radioactivity was removed by filtration using Multiscreen™ 96-well plates (Millipore). The filters were washed with 10% TCA and 95% ethanol and then, liquid scintillation cocktail was added and the filters were counted using a Microbeta counter (Wallac).

[5] = test system: DNA and protein synthesis in S. aureus; assay: Macromolecular synthesis in S. aureus expressing the ORF (DNA and protein); type: cell-based, Staphylococcus aureus; details: induced conditions

T1 sequence (P0A0J0 whole entry): as above

B1: G1ORF67: 198 amino acids protein from S. aureus bacteriophage G1 (SEQ ID NO: 7), anti-primary sigma factor (protein)
chain: MKLKILDKDNATLNVFHRNKEHKTIDNVPTANLVDWYPLSNAYEYKLSRNGEYLELKRLRSTLPSSYGLDDNNQDIIRDNNHRCKIGYWYNPAVRKDNLKIIEKAKQYGLPIITEEYDANTVEQGFRDIGVIFQSLKTIVVTRYLEGKTEEELRIFNMKSEESQLNEALKESDFSVDLTYSDLGQIYNMLLLMKKISK
modifications: Bacteriophage G1
TR-FRET interaction with STAAU_R12 (STAAU_R12 [1]): interact with each other | interaction with full length STAAU_R12 (growth on SD THAL minus medium) (STAAU_R12 [2]; yeast AH109): interacts | interaction with STAAU_R12 fragment amino acids 294 to 368 (SEQ ID NO: 4) (STAAU_R12 [2]; yeast AH109, both directions): also interacted | interaction with STAAU_R12 fragment amino acids 294 to 360 (SEQ ID NO: 5) (STAAU_R12 [2]; yeast AH109, one direction): found to interact | effect on DNA-protein complex formation (STAAU_R12 DNA binding) [3]: interfere with the DNA protein complex formation | RNA synthesis as monitored by uridine uptake [4]: marked reduction | effect on DNA synthesis [5]: no inhibitory effect | effect on protein synthesis [5]: no inhibitory effect
